Test results as given in PubChem BioAssay AID938 (National Center for Advancing Translational Sciences (NCATS), 2007).
Out of some 73,000 compounds screened, about 1,800 (2.5%) were called active. Not shown: some 13% with an inconclusive outcome. Calls follow the shape of the dose curve; as a rule, active = well fitted activation curve with a large enough effect; inconclusive = small, poorly fitted or top-dose-only effect; inactive = no such curve, though single readings can be large or run the other way. The entries are a selection whose mix differs from that of the whole data set.

Assay: qHTS Assay for Agonists of the Thyroid Stimulating Hormone Receptor: Activators of Intracellular cAMP Concentrations in Parental HEK 293; also: nearly all actives have a fitted effect of over 55% in size; as to activation: % of control where 0% means no effect
Conditions: parental HEK293 CNG cAMP sensor, membrane potential fluorescence; series mostly up to 57.1 µM; activation: at the top concentration
Outline: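 Parental HEK 293 cells stably expressing a modified CNG channel (no TSHR) report cAMP rise as membrane depolarization. Membrane potential dye with 100 uM RO 20-1724 was loaded for 60 min at room temperature, then compound added for 30 min; fluorescence read at 590 nm.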
Potency is read from the fitted curve at half-maximal effect.

Structure (SMILES)	activation	Potency
CCC(CC)COC(=O)C(C#N)c1nc2ccccc2nc1N1CCN(CC)CC1 (stereo not drawn)	inactive: -70.3%	
Cc1ccccc1-c1nnc(SCC(=O)NC2CCCCC2)o1		active: 31.6 µM
NCC(=O)NC1(C(=O)O)CCCC1	inactive: -63.2% [at 11.4 µM]	
O=C1c2ccccc2C(=O)C1(O)O	inactive: -27.5%	
COC(=O)[C@@]1(Cc2ccc(OC)cc2)[C@H]2c3cc(C(=O)N(C)C)n(Cc4ccc(C)o4)c3C[C@H]2CN1C(=O)c1ccccc1		active: 15.8 µM
NCCC(=O)NCCc1cnc[nH]1	inactive: 8.15% [at 25.6 µM]	
COc1cccc(C2=CC(c3cc(OC)ccc3OC)n3nnnc3N2)c1 (stereo not drawn)	inactive: 50.7%	
O=C(C1CCC(Cn2c(=S)[nH]c3ccccc3c2=O)CC1)N1CCN(c2ccccc2)CC1 (stereo not drawn)	inactive: -54.2%	
CC(=O)c1ccc(S(=O)(=O)NC(=O)NC2CCCCC2)cc1		inactive
Cn1c(=O)c2c(nc(Br)n2CCSc2nnnn2-c2ccccc2)n(C)c1=O	inactive: 0.733%	
OB(O)O	inactive: 3.46%	
N=c1n(CCO)c2ccccc2n1Cc1ccccc1Cl	inactive: -43%	
Nc1nc(SCc2ccccn2)c2ncn(C3CCCC3)c2n1	inactive: -37% [at 11.4 µM]	
O=C(NCc1cccs1)C1CCN(S(=O)(=O)c2ccc3c(c2)OCCO3)CC1	inactive: -39.9%	
N#Cc1ccc(CN2CCCC3(CCN(S(=O)(=O)c4ccccc4)CC3)C2)cc1		active: 12.6 µM
CCCCCN(CCCCC)C(=O)[C@H](CCC(=O)O)NC(=O)c1ccc(Cl)c(Cl)c1	inactive: 10.5%	
COC(=O)c1ccc(-n2nnnc2SCc2ccccc2OC)cc1		active: 15.8 µM
CNC(=O)[C@H](C)[C@@H]1C[C@@]1(C)[C@@H](NC(=O)OCc1ccccc1)c1ccccc1	inactive: 12.3%	
C[C@@H]1CC[C@H]2C(=O)N3[C@@H](CC[C@@H](C)[C@@H]3c3ccc(Br)cc3)C(=O)N2[C@@H]1c1ccc(Br)cc1	inactive: 1.49% [at 11.4 µM]	
CN1CCc2cc(Cl)c(O)cc2[C@@H](c2ccccc2)C1		active: 25.1 µM
Cc1cc(=O)oc2cc(O)cc(O)c12	inactive: 11.8%	
CC(=O)Oc1ccccc1C(=O)O		inactive
N[C@@H](Cc1c[nH]c2ccc(O)cc12)C(=O)O	inactive: 11.6%	
COC(=O)COC(=O)c1ccc(-n2nnnc2SC)cc1	inactive: -63.9%	
CC(=O)O[C@]1(C(C)=O)CC[C@@H]2[C@@H]3C=C(Cl)C4=CC(=O)[C@H]5C[C@@H]5[C@]4(C)[C@H]3CC[C@]21C		inactive
CC(=O)Nc1sc2c(c1C(=O)N1CCOCC1)CCCCC2	inactive: -68.9%	
CC(=O)Nc1ccc(C(=O)OC2CCOC2=O)cc1 (stereo not drawn)	inactive: -33.8%	

Structure (SMILES)	activation	Potency
C[C@@](N)(C(=O)O)c1ccc(C(=O)O)cc1		inactive
Cc1ccc(S(=O)(=O)NCc2ccc(C(=O)N3CCN(c4ccccn4)CC3)cc2)cc1	inactive: -53.8%	
COc1ccccc1NC(=O)CSc1ccc2nnc(-c3ccncc3)n2n1	inactive: -40.2%	
O=c1[nH]c(-c2ccc(Cl)cc2)nc2c1cnn2-c1ccccc1	inactive: -4.38%	
N[C@@H]1CONC1=O		inactive
OCC1OC(/C=C\c2ccccc2)C=CC1Oc1ccc2c(c1)OCO2 (stereo not drawn)		active: 3.98 µM
COC(=O)[C@@H]1C[C@H]1[C@@H](NC(=O)Oc1ccc(F)cc1)c1ccccc1		active: 10 µM
CCN1C(=O)/C(=C2\SC(=S)N(CCCOC)C2=O)c2ccccc21	inactive: -68.5%	
COc1cc(S(=O)(=O)N2CCCCCC2)c(OC)cc1Br		active: 15.8 µM
C/C(=C\c1ccco1)C1Nc2cccc3cccc(c23)N1	inactive: -62%	
N#CC(C#N)=c1ccc2c(c1)N1C3=C(CCCC3)CC3CCCCC31N=2 (stereo not drawn)	inactive: -86.9%	
O=[N+]([O-])c1cc(N(CCO)CCO)ccc1NCCO	inactive: 25.4%	
CC(=O)NC1CC2CCCC(C1)N2C(=O)Nc1ccc(Cl)c(C(F)(F)F)c1 (stereo not drawn)	inactive: -68.5%	
CCC1CCCCN1C(=O)CSc1nnc(CNC(=O)c2cc(OC)c(OC)c(OC)c2)o1 (stereo not drawn)	inactive: -2.62%	
NCCCCCCNS(=O)(=O)c1cccc2c(Cl)cccc12	inactive: 17.8%	
COCCN1C(=O)C(CC(=O)Nc2ccc(C(C)=O)cc2)SC1=Nc1ccccc1 (stereo not drawn)	inactive: -34.2%	
CCCc1cc(=O)[nH]c(=S)[nH]1		inactive
CC(=O)Nc1ccc(OC(=O)c2cccs2)cc1	inactive: -32.7%	
CCC(O)C(C)(C)C (stereo not drawn)	inactive: -31%	
O=C(Nc1ccccc1)c1cc([N+](=O)[O-])ccc1Cl		inactive
CCOC(=O)c1ccc(NC(=O)Nc2ccc3c4c(cccc24)C(=O)N3CC)cc1	inactive: -31.9%	
CCOC(=O)c1sc2nc(N3CCCC3)c3c(c2c1N)CC(C)(C)OC3	inactive: -32.8%	
CCOC(=O)c1ccc(Oc2nc(NC(C)(C)C)nc(N(C)C)n2)cc1		active: 25.1 µM
COc1ccccc1-c1nc(N2CCN(C)CC2)c2ccccc2n1	inactive: -30.9%	
Cn1ncc(C#N)c1NC(=O)C1CC(c2c(F)cccc2Cl)=NO1 (stereo not drawn)	inactive: 3.8%	
C[C@@H](C(=O)NCc1ccccc1)[C@@H]1C[C@@]1(C)[C@@H](NC(=O)OCc1ccccc1)c1ccccc1	inactive: 11.6%	
